From PubChem BioAssay AID602332 (National Center for Advancing Translational Sciences (NCATS), 2012)
“And” between values parts separate entries of the source, which are not always exact repeats. Equal entries are not always repeated. About 75 (0.02%) of roughly 420,000 compounds were called active. The inconclusive results got no clear call from the source; some entries with a clear call stand among them for comparison. Calls come from the whole dose curve; as a rule, active = well fitted activation curve with a large enough effect; inconclusive = small, poorly fitted or top-dose-only effect; inactive = no such curve, though single readings can be large or run the other way. Potencies beside an inconclusive call are fits to weak or partial responses and may not hold up.

assay: qHTS for Inducers of the Endoplasmic Reticulum Stress Response (ERSR) in Human Glioma: qHTS; settings: U87-MG GRP78 promoter luciferase reporter, 16 h; activation: hits give high values; note: nearly all actives have a fitted effect of over 35% in size; for activation: % of control where 0% means no effect
Summary of the method: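 ERSR induction read as luciferase luminescence (Bright-Glo, 10 min at room temperature) in stably transfected human U87-MG glioma cells exposed to compounds for 16 h, using GRP78 as sensor.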
Potency is the fitted concentration of half-maximal effect; tags give direction and shape of the fitted curve.

SMILES	Potency	activation
COc1ccc(/C=N/NC(=O)c2ccccc2O)cc1CN1CCOCC1	inconclusive: 39.8 µM [activator, partial curve, poor fit]	
CCN(CC)CCn1nc2c3c(cccc3c1=O)-c1ccccc1-2	inconclusive: 22.4 µM [activator, single point]	
O=C(N/N=C/c1cc([N+](=O)[O-])ccc1O)c1ccncc1		inactive: -4.83%
CCOc1cccc(CNc2ccc(O)cc2)c1OCc1ccccc1Cl	inconclusive: 50.1 µM [activator, single point] and inconclusive: 8.91 µM [activator, full curve, poor fit]	
N#C/C(=C\c1ccc(-c2ccc(F)cc2F)o1)c1nc2ccccc2[nH]1		inactive: 6.32%
CC(C)c1ccc2c(c1)C1(NN=C(c3ccccc3)S1)C(=O)N2 (configuration not stated)	inconclusive: 8.91 µM [activator, partial curve, poor fit]	
CCn1c(SCC(=O)c2ccc(Cl)cc2)nnc1C(C)C	inconclusive: 39.8 µM [activator, partial curve, poor fit]	
CCOc1ccc(Cn2c(O)cc(=O)[nH]c2=O)cc1		inactive: -3.15%
Cc1ccnc(NC(=O)CCC(=O)c2cccs2)c1		inactive: -13.2%
Cc1ccsc1C(=O)NNC(=O)C1CCCCC1C(=O)O (configuration not stated)	inconclusive: 11.2 µM [activator, single point]	
CC(=O)N1CCc2c(sc(NC(=O)c3ccc(S(=O)(=O)N(C)C)cc3)c2C#N)C1	inconclusive: 28.2 µM [activator, single point]	
CN1CCN(Cc2cc(=O)oc3ccc(Cl)cc23)CC1		inactive: -2.91%
CCOC(=O)c1ccc(NC(=O)c2c(NCc3sccc3C)sc3c2CCCCC3)cc1	inconclusive: 44.7 µM [activator, single point]	
CCOC(=O)N1CCC(NC(=O)CS(=O)Cc2nc(-c3ccccc3C)oc2C)CC1 (configuration not stated)	inconclusive: 14.1 µM [activator, single point]	
O=C(NC(=S)Nc1nc2c(s1)CCCC2)c1ccccc1		inactive: 5.92%
CCCOc1ccc(C(=O)c2ccccc2C(=O)OC2CCOC2=O)cc1OCCC (configuration not stated)	inconclusive: 44.7 µM [activator, partial curve, poor fit]	
COc1ccc(O)c(C2Nc3ccccc3-n3c(-c4ccccc4)c4c(=O)n(C)c(=O)n(C)c4c32)c1 (configuration not stated)		inactive: -2.64%
COc1ccc(C(=O)N2CCN(C3CCN(Cc4ccccc4)CC3)CC2)cc1OC		inactive: -2.09%
O=C(O)c1cccc(NC(=O)C2CC(=O)N(Cc3ccccc3)C2)c1 (configuration not stated)		inactive: -1.93%
CC(=O)Nc1cc(-c2ccc(CO)cc2)cn2c(-c3ccc(F)cc3)cnc12	inconclusive: 50.1 µM [activator, single point]	
Ic1ccc(/C=C2\C=Cc3ccccc32)cc1	inconclusive: 28.2 µM [activator, single point]	

SMILES	Potency	activation
COc1ccc(Cl)cc1C=CC=Nc1ccc(S(N)(=O)=O)cc1	inconclusive: 44.7 µM [activator, partial curve, poor fit]	
CCOC(=O)Cn1c(=O)oc2cc(S(=O)(=O)N(C)c3cccc(C)c3)ccc21	inconclusive: 56.2 µM [activator, single point]	
COc1ccc(N2CCN(C(=O)c3cccc(S(=O)(=O)N4CCOCC4)c3)CC2)cc1		inactive: -5.45%
Cc1ccsc1C=Nc1ccc(O)cc1	inconclusive: 28.2 µM [activator, single point]	
Nc1ccc(-c2ccc3ccccc3n2)cc1		inactive: -3.92% and inactive: -13%
CCC(C(=O)NCCc1ccccc1)n1nc(C)c2sc3ccccc3c2c1=O (configuration not stated)		inactive: -0.353%
COc1ccc(C(=O)NCCN(C)C)c2nc3ccccc3cc12	inconclusive: 28.2 µM [activator, single point]	
COc1ccc(C2(C)NC(=O)N(CC(=O)Nc3ccc(-c4nc5ccc(C)cc5s4)cc3)C2=O)cc1 (configuration not stated)	inconclusive: 11.2 µM [activator, single point]	
O=C(NCCc1ccccc1)c1c[nH]c2ccccc2c1=O	inconclusive: 25.1 µM [activator, single point]	
CC1(C)Cc2c(cnn2-c2ccc(F)cc2)C(NC(=O)c2ccoc2)C1 (configuration not stated)		inactive: -3.67%
Nc1ccccc1NC(=O)c1ccc(CNC(=O)OCc2cccnc2)cc1	inconclusive: 2 µM [activator, partial curve, poor fit]	
Cc1ccc(C(=O)Oc2ccc([N+](=O)[O-])cc2)cc1S(=O)(=O)N1CCCCCC1		inactive: -0.181%
CC(C)(C)NS(=O)(=O)c1ccc(Oc2ncc(C(F)(F)F)cc2Cl)cc1	inconclusive: 50.1 µM [activator, single point]	
Cc1ccc(S(=O)(=O)c2nnn3c2nc(NC(C)C)c2cc(Cl)ccc23)cc1C		inactive: 3.52%
O=C(Nc1ccccc1)c1ccc(C(=O)Nc2ccccc2)nc1	inconclusive: 5.62 µM [activator, partial curve, poor fit]	
CNC(=O)CSc1cn(CC(=O)N2CCCCCC2)c2ccccc12	inconclusive: 50.1 µM [activator, single point]	
COC(=O)C(C)N1C(=O)S/C(=C\c2ccc(-c3ccc(C(=O)O)cc3C)o2)C1=O (configuration not stated)	inconclusive: 50.1 µM [activator, partial curve, poor fit]	
Cc1ccc(NC(=O)[C@H](Cc2ccccc2)NC(=O)[C@@H]2Cc3ccccc3CN2)c(C)c1	inconclusive: 28.2 µM [activator, single point]	
COc1ccccc1NC(=O)c1c(NCc2ccc(C)o2)sc2c1CCCCC2	inconclusive: 44.7 µM [activator, single point]	
CC(C)(C)C1CCc2oc3ccc(NS(=O)(=O)c4ccc(C(=O)O)cc4)cc3c2C1 (configuration not stated)	inconclusive: 50.1 µM [activator, single point]	
CCCCCCNCC(=O)N1CCC(Cc2ccccc2)CC1	inconclusive: 15.8 µM [activator, single point]	
